Data published in publication PMC4336329 (PLoS ONE, 2015).
Hit rate of the full screen: of about 310,000 compounds, about 2,200 (0.71%) showed an effect of 50% or more. Effects have a minus sign here. This is one part of the list.

molecular target: human ether-à-go-go-related gene (hERG) potassium channel (human, UniProt Q12809); experiment: primary screen, population patch clamp on CHO cells stably expressing hERG
Sequence (Q12809 whole entry, looked up): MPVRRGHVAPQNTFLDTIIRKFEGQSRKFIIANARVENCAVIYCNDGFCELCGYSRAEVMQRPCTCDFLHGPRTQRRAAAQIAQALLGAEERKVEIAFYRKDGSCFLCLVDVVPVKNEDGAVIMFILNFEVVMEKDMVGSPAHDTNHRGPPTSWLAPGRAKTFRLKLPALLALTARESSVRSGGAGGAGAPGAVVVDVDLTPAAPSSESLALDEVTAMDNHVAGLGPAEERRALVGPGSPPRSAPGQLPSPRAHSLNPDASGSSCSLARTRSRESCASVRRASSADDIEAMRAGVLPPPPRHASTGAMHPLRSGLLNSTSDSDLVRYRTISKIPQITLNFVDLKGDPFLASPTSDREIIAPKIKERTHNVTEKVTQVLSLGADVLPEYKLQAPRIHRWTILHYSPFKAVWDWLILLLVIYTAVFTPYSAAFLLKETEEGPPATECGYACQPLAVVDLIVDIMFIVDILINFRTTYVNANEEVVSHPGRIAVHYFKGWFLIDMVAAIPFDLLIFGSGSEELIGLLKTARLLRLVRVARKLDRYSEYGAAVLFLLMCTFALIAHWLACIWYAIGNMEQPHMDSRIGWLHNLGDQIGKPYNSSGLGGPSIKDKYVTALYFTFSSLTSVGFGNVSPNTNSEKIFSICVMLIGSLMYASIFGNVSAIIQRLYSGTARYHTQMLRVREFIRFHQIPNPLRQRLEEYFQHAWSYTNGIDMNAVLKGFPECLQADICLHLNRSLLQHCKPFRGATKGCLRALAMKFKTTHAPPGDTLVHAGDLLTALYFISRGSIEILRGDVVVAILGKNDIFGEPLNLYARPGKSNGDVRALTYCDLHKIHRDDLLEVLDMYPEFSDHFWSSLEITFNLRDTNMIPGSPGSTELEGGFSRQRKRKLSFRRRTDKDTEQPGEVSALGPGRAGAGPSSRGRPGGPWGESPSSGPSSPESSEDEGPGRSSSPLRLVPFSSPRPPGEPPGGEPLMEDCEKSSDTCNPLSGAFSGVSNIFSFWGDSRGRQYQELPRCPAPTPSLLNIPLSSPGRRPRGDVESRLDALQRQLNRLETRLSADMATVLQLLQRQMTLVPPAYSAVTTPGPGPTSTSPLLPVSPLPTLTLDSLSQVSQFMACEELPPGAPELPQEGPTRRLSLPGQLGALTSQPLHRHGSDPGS

SMILES | hERG current change (%, negative = inhibition) at 1uM
O=C1CC(c2ccccc2)c2cccc(F)c21 (stereo not drawn) | 9.86%
Cc1cc(C)c(C(=O)N2CCCC(C(=O)c3cc(F)ccc3F)C2)o1 (stereo not drawn) | 12.2%
CCOc1ccc(S(=O)(=O)N2CCC(C(=O)N3CCOCC3)CC2)cc1C | 13.2%
CC(C)(C)NC(=O)/C(=C/c1cccnc1)NC(=O)c1ccco1 | -0.552%
COC(=O)c1ccccc1NC(=O)NCc1ccco1 | 17.5%
CCOC(=O)C1=C(CN2CCN(C(=O)c3ccco3)CC2)NC(=O)NC1c1ccc(Cl)cc1 (stereo not drawn) | -0.668%
CCOC(=O)c1c(N)sc(C(=O)Nc2ccccc2)c1C | 10.7%
O=S(=O)(Nc1ccc(N2CCCCC2)cc1)c1ccc(F)cc1F | 7.99%
COC(=O)C(C)Sc1ccc2nnc(CCNS(=O)(=O)c3ccc(C)cc3)n2n1 (stereo not drawn) | 5.96%
CCCNC(=O)C1CCN(S(=O)(=O)c2c(C)noc2/C=C\c2ccc(OC)cc2)CC1 | 1.33%
C[C@@H]1CN(C2CCN(Cc3nc(CC4CC4)no3)CC2)C[C@H](C)O1 | 10.5%
Cc1ccccc1C(=O)N1CCN(c2ccc(NC(=O)c3ccc([N+](=O)[O-])o3)cc2)CC1 | 12.8%
FC(F)Oc1ccc(NC(=S)NCc2ccccc2)cc1 | 10.9%
FC(F)(F)c1cccc(NC(=S)NCc2ccccc2)c1 | 2.25%
CNC(=S)NNc1nc(C)cc(C)n1 | 4.57%
CC(=O)c1ccc(Nc2nc(=O)c3cccnc3s2)cc1 | 11.4%
CC1=C(C(=O)N2CCOCC2)C(c2ccc(Cl)cc2)NC(=S)N1 (stereo not drawn) | 17.9%
Cc1ccc2nc(NC(=O)CSc3nc(=O)n(CCN(C)C)c4c3CCCC4)sc2c1 | -4.09%
COc1cccc(CN2C(=O)C(C)Oc3ccccc32)c1 (stereo not drawn) | 10.8%
CCCc1cc(=O)[nH]c(SCC(=O)Nc2nonc2N)n1 | -14.3%
COc1cccc(-n2nnnc2SCC(=O)NC2CCCC2)c1 | 10%
COc1ccc(S(=O)(=O)N2CCC(NC(=O)OCc3c(Cl)cccc3Cl)CC2)cc1 | 2.08%

SMILES | hERG current change (%, negative = inhibition) at 1uM
COC(=O)c1ccccc1S(=O)(=O)N1CCC(C(=O)OCc2ccc([N+](=O)[O-])cc2)CC1 | -32.2%
O=C(NCCc1ccccc1)c1ccc2c(c1)N(Cc1ccccc1)C(=O)CS2=O (stereo not drawn) | 11.1%
CCOC(=O)c1c(NC=O)sc2c1CCC2 | 12.8%
CN(C)CCCSc1nc(-c2ccccc2)nc2c1CCC2 | -30.7%
CCCCC(=O)NC(c1ccc(Cl)cc1)c1ccc2cccnc2c1O (stereo not drawn) | 6.4%
COc1ccc(-c2nn(CCC(=O)O)cc2/C=N/NC(N)=S)cc1 | 1.71%
COc1ccc(C(=O)NCCc2nnc3ccc(SCC(=O)Nc4cc(C)on4)nn23)cc1 | 1.01%
O=C(CN1C(=O)CSc2cc(S(=O)(=O)N3CCCCCC3)ccc21)NCCc1ccccc1 | 4.74%
Cc1cc(NC(=O)CSc2nc(-c3ccccc3)nc3c2c(=O)n(C)c(=O)n3C)no1 | 5.17%
O=[N+]([O-])c1ccc(O)c([N+](=O)[O-])c1 | 6.22%
CCCOP(=O)(OCCC)C(NC(=O)c1ccccc1)=C(Cl)Cl | 8.75%
Cc1ccc(-n2ncc3c(=O)n(CC(=O)NCc4ccco4)cnc32)cc1C | 16.5%
S=c1[nH]nc(-c2ccc(Cl)cc2)n1-c1cccnc1 | 11.2%
CCOCCCNC(=O)c1cc(Sc2nnc(C)s2)nc2ccccc12 | 7.07%
CCn1c(SCc2cccc(OC)c2)nc2ccccc2c1=O | 12.2%
Cc1cccc(C(=O)Nc2cccc(-c3cnc4ccccc4n3)c2)c1 | 11.9%
COc1ccc(CNCCC(c2ccc(OC(C)C)cc2)c2ccccc2OC)cc1 (stereo not drawn) | 0.85%
CC1CCN(C(=S)NC(=O)c2ccccc2Br)CC1 | 10.6%
Cc1cccc(N2CCN(C(=O)c3cc(S(=O)(=O)N4CCOCC4)cn3C)CC2)c1C | 5.14%
COc1ccc(C(=O)NCCc2nnc3ccc(SCC(=O)Nc4ccccc4)nn23)cc1 | 10.7%
COc1cc(/C=N/NC(=O)c2cccc(NC(=O)c3ccccc3C)c2)ccc1O | -10.7%
CN(C)S(=O)(=O)n1cc(/C=C(\NC(=O)c2ccccc2Cl)C(=O)NCCCN2CCOCC2)c2ccccc21 | 15.9%

SMILES | hERG current change (%, negative = inhibition) at 1uM
Cc1cc(-c2nnc(CCC(=O)NC(C)c3ccc(F)cc3)o2)no1 (stereo not drawn) | -0.909%
CN(CC(O)Cn1cnc2c1c(=O)n(C)c(=O)n2C)c1ccccc1 (stereo not drawn) | 10.3%
COc1ccc(Cn2nnnc2C(c2cccnc2)N2CCN(c3ccc(O)cc3)CC2)cc1 (stereo not drawn) | 3.3%
CCn1c(=O)cc(OCC(=O)NCCc2ccc(OC)c(OC)c2)c2ccccc21 | -11.8%
Cc1cccc(C)c1N/C=C/c1onc(C)c1[N+](=O)[O-] | 10.7%
O=c1c(Cl)c(N2CCN(c3ccccc3)CC2)cnn1C12CC3CC(CC(C3)C1)C2 | 10.2%
CCn1nc(C)cc1C(=O)NC1CCCc2c1cnn2-c1cc(F)cc(F)c1 (stereo not drawn) | 20.5%
COC(CN(C)C(=O)c1ccc(CS(=O)(=O)c2ccccc2C)o1)OC | 16.6%
O=C(NCCN1C(=O)S/C(=C\c2cccnc2)C1=O)c1ccc(S(=O)(=O)N2CCCC2)cc1 | -6.33%
CC(=O)CCC1C2C(O)C(C(C)C)C(OC(=O)/C=C/c3ccccc3)CC12C (stereo not drawn) | -6.41%
Cc1nn(C)c(C(=O)N/N=C/c2cccc(Oc3ccccc3)c2)c1Br | 15.7%
CC1CCc2cc(F)ccc2N1C(=O)CSc1nnc2c(n1)[nH]c1ccccc12 (stereo not drawn) | 0.184%
Cc1ccc(-c2csc(NC(=O)CN3C(=O)CCC3=O)n2)cc1 | 14.3%
NC(Cc1c[nH]c2ccccc12)C(=O)Nc1ccccc1 (stereo not drawn) | 4.73%
CN(CC(=O)Nc1ccc(F)c(F)c1)S(=O)(=O)c1cccc2cccnc12 | 12.4%
O=C(NCCOc1ccccc1)c1ccc2c(c1)OCO2 | 9.84%
Cc1cc(C)c(C#N)c(SCCS(=O)(=O)c2ccc(C(C)(C)C)cc2)n1 | 4.43%
CCCCN1CC(=O)N2[C@H]3c4cc(OC)ccc4OC[C@@H]3[C@H](C(=O)OCC)[C@]2(C)C1=O | 4.96%
CN(c1ccc(C(=O)NCc2cccnc2)cc1)S(=O)(=O)c1ccc(Cl)cc1 | 8.4%
O=C(Nc1ccc2c(c1)OCO2)c1ccc(Cl)cc1Cl | 2.12%
CCN(C(=O)CSc1nc2cc(S(=O)(=O)N(CC)CC)ccc2n1CC)C1CCS(=O)(=O)C1 (stereo not drawn) | -1.98%
CCOc1cc(C(=O)Nc2cc(C)ccc2OC)ccc1OCC(=O)N1CCCCC1 | 5.47%

SMILES | hERG current change (%, negative = inhibition) at 1uM
Cc1csc(SCC(=O)c2ccc(S(=O)(=O)N3CCOCC3)cc2)n1 | 9.84%
COc1ccc(CN(C)C(=O)C2CC(=O)N(c3ccc4c(c3)OCCO4)C2)c(OC)c1 (stereo not drawn) | 8.65%
O=C(CSc1nc2c(c(=O)n1-c1ccc(F)cc1)SCC2)NCC1CCCO1 (stereo not drawn) | -3.31%
C/C(CC(=O)Nc1ccc(Cl)cc1Cl)=N\NC(=O)C(=O)NCCO | 13.2%
CC(=O)Nc1ccc(NC(=O)c2ccc(N(C)S(=O)(=O)c3ccc(C)cc3)cc2)cc1 | -1.11%
Cc1ccc(N2CC(C(=O)N/N=C/c3sccc3C)CC2=O)cc1 (stereo not drawn) | -4.06%
CCC1(C)COC2(OC1)C(=O)Nc1ccccc12 (stereo not drawn) | 13.9%
Cc1csc(NC(=O)CSc2nnc(-c3ccccn3)n2-c2ccc(C)c(C)c2)n1 | -57.4%
CCCN1CCN(CC(=O)Nc2nnc(C)s2)CC1 | 21.5%
O=C(CNC(=O)c1cccc(Cl)c1)N/N=C/C=C/c1ccccc1 | 12.1%
CCc1nnc(NC(=O)CN2CCN(Cc3cccc(Cl)c3)CC2)s1 | 9.56%
COc1ccc(C(=O)N/N=C(\C)CC(=O)Nc2ccc(N(C)C)cc2)c(OC)c1 | 11.5%
CCCn1c(NCc2cccc(OC)c2O)nc2ccccc21 | -4.05%
COc1ccc(OC)c(C(=O)C2COC(=O)C2)c1 (stereo not drawn) | 16.2%
CSc1ccccc1NC(=O)COc1ccc(Cl)cc1Cl | 2.11%
O=C1c2ccccc2NC(c2ccco2)N1NS(=O)(=O)c1ccccc1 (stereo not drawn) | 12.7%
COc1ccccc1-c1nnc2sc(COc3ccccc3)nn12 | 7.55%
O=C(CN1CCN(S(=O)(=O)c2ccc(F)cc2)CC1)NC1CCCC1 | 10.9%
CC(C)c1nccn1CCC(=O)O.Cl | 9.47%
O=[N+]([O-])c1ccccc1CSc1nc2ccccc2o1 | 13.1%
CCc1ccc(CN2CCN(c3ncccn3)CC2)cc1 | 2.39%
